{"source": "ChEMBL document CHEMBL4888484", "about": "“Replenishing the malaria drug discovery pipeline: Screening and hit evaluation of the MMV Hit Generation Library 1 (HGL1) against asexual blood stage Plasmodium falciparum ,using a nano luciferase reporter read-out” (2022)", "note": "About 540 (0.36%) of roughly 150,000 compounds showed an effect of 50% or more. Some of the results follow.", "data": [{"system": "Plasmodium falciparum", "assay": "Primary screen in NF54 nanoGlo assay, in single point, at 2uM, 72h; a lower Z score goes with more inhibition", "type": "functional, Erythrocyte", "details": "timepoint 72 hour", "units": {"% Inhibition": "%"}, "values": [{"compound": "CCn1nnc2cc(C(=O)N3CCc4cc(OC)c(OC)cc4C3)ccc21", "% Inhibition": -4, "Z score": 0.52}, {"compound": "CCCOc1ccc([C@H](C)NC(=O)NCCCN(C)C)cc1OCCC", "% Inhibition": -6, "Z score": 0.62}, {"compound": "CCCc1nc(C(=O)N[C@@H]2c3ccccc3C3(CCNCC3)[C@H]2O)cs1", "% Inhibition": -4, "Z score": 0.85}, {"compound": "CC1CC(NS(=O)(=O)CCC2CCCO2)CN1c1ccccc1", "note": "(configuration not stated)", "% Inhibition": -3, "Z score": 0.56}, {"compound": "Cc1ccc(S(=O)(=O)N2CCN(C(=O)NCCc3cn[nH]c3)CC2)cc1", "% Inhibition": -5, "Z score": 0.63}, {"compound": "c1ccc(-n2cc(-c3noc(-c4ccc5ccccc5n4)n3)nn2)cc1", "% Inhibition": -19, "Z score": 3.68}, {"compound": "Cc1cc(C(=O)N(C)CC[C@H](N)C(C)C)n(C)n1", "% Inhibition": -21, "Z score": 2.68}, {"compound": "Cc1cccc(N[C@@H](C)C(=O)NC(C)(C)C)c1", "% Inhibition": -8, "Z score": 1.39}, {"compound": "CCN(CC)S(=O)(=O)CCNC(=O)[C@@H](c1cc(Cl)cc(Cl)c1)N(C)C", "% Inhibition": -1, "Z score": 0.19}, {"compound": "CCCn1nnc2cc(S(=O)(=O)N3CCCC[C@H]3C(=O)NCCCN3CCOCC3)ccc21", "% Inhibition": -21, "Z score": 1.83}, {"compound": "O=C1CN(c2ccccc2NC(=O)c2ccc[nH]c2=O)CCN1", "% Inhibition": -15, "Z score": 2.14}, {"compound": "COc1ccc(/C=C/CN2CCC[C@H](CNC(=O)c3ccoc3)C2)cc1", "% Inhibition": -2, "Z score": 0.32}, {"compound": "CCN(CCNC(=O)c1nn(CC)c2c1COCC2)c1ccccc1", "% Inhibition": 3, "Z score": -0.41}, {"compound": "CCc1ccccc1NC(=O)CN1C(=O)CCn2nc(-c3cn(C)c4ccccc34)cc21", "% Inhibition": 1, "Z score": -0.23}, {"compound": "COCCN(Cc1ccnn1C)C(=O)C1COC(C)C1", "note": "(configuration not stated)", "% Inhibition": -7, "Z score": 0.7}, {"compound": "CCc1nc(C)c(C(=O)N(Cc2ccco2)C[C@H]2CCCO2)o1", "% Inhibition": -6, "Z score": 0.57}, {"compound": "Cc1n[nH]c(C)c1[C@@H](N)C(=O)NCCc1c[nH]c2ccccc12", "% Inhibition": -2, "Z score": 0.39}, {"compound": "COc1ccc(C(=O)N2CCc3ccc(C(=O)NCc4cccnc4)cc32)cc1", "% Inhibition": -10, "Z score": 1.19}, {"compound": "O=C(CN1N=C(c2ccccc2)c2ccccc2S1(=O)=O)NCc1ccc2c(c1)OCO2", "% Inhibition": -2, "Z score": 0.28}, {"compound": "CCC1(CNC(=O)Nc2csnc2C)CC1", "% Inhibition": -18, "Z score": 2.36}, {"compound": "Cc1ccc(CS(=O)(=O)N2CC[C@H](c3cc(C)ccn3)C2)cc1", "% Inhibition": -1, "Z score": 0.18}, {"compound": "Cc1ncsc1C(=O)NC1CCN(C(=O)c2ccc(O)c(Cl)c2)CC1", "% Inhibition": -4, "Z score": 0.33}, {"compound": "Cc1cc(CNCCC(=O)N2CCCC2)ccc1Br", "% Inhibition": -3, "Z score": 0.25}, {"compound": "O=C(C[C@H]1CCN(S(=O)(=O)c2ccc(F)cc2F)C1)NCc1ccccc1", "% Inhibition": 45, "Z score": -6.54}, {"compound": "CCC[C@H]1CN(c2nccc(C(F)(F)F)n2)C[C@@H]1N", "% Inhibition": -7, "Z score": 1.25}, {"compound": "Cc1cc(CN2Cc3nc(C4CC4)nc(O)c3C2)on1", "% Inhibition": 2, "Z score": -0.32}, {"compound": "COc1ccc(CN2C(=O)COC[C@H]2C(=O)NCc2cccc(F)c2)cc1OC", "% Inhibition": -10, "Z score": 1.16}, {"compound": "CC(C)n1cc(CN2CC[C@]3(O)CCN(C(=O)C4CCC4)C[C@@H]3C2)cn1", "% Inhibition": -3, "Z score": 0.38}, {"compound": "Cc1ccncc1NC(=O)C[C@H]1COCCN1Cc1coc(-c2ccccc2)n1", "% Inhibition": -9, "Z score": 0.89}, {"compound": "CCN(CCNC(=O)Nc1cn(CC(C)C)c(=O)c2ccccc12)Cc1ccccc1", "% Inhibition": 2, "Z score": -0.34}, {"compound": "CC(C)(C)OC(=O)c1cccc(CNc2nccnc2C#N)c1", "% Inhibition": 1, "Z score": -0.2}, {"compound": "O=C(CC1CC1)N(Cc1ccncc1)C1CC1", "% Inhibition": -2, "Z score": 0.34}, {"compound": "C[C@]1(C(N)=O)CCN(C(=O)c2ccc(Nc3nccs3)cc2F)C1", "% Inhibition": 7, "Z score": -1.18}, {"compound": "COCCNC(=O)CN1CN(c2ccccc2)C2(CCN(C(=O)c3ccc(OC)cc3OC)CC2)C1=O", "% Inhibition": -9, "Z score": 1.59}, {"compound": "COc1ccccc1CNC(=O)[C@]1(C)Cn2nc(-c3ccccc3)cc2C(=O)N1Cc1ccccc1", "% Inhibition": 6, "Z score": -1.02}, {"compound": "Cc1ccc(C(=O)NC[C@H]2CCOC2)nn1", "% Inhibition": 4, "Z score": -0.57}, {"compound": "COc1ccc(CCn2c(-c3c(OC)ccc4ccccc34)nc3cc(Cl)ccc3c2=O)cc1", "% Inhibition": 10, "Z score": -1.1}, {"compound": "O=C1[C@H]2CCCC2=NN1c1ccc(Cl)cc1Cl", "% Inhibition": -4, "Z score": 0.83}, {"compound": "Cc1cnc(CCNC(=O)CC2CCCC2)n1C1CCCCCC1", "% Inhibition": -11, "Z score": 1.62}, {"compound": "CCN(C(=O)c1ccc[nH]1)[C@@H](C)c1cc2ccccc2o1", "% Inhibition": -8, "Z score": 0.8}, {"compound": "O=C(N[C@@H]1CC[C@H]2CCOc3ccccc3C(=O)N3CCN(C4CCOCC4)C[C@H]3C(=O)NC[C@H]1O2)C1CCOCC1", "% Inhibition": -7, "Z score": 1.06}]}]}
